Results published in PubChem BioAssay (NCI).
“And” between values parts separate entries of the source, which are not always exact repeats. Identical values can stand only once.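 Test compounds were applied to cells in 96-well plates for 48 hours at 5 doses. Here, GI50 denotes the concentration required for 50% inhibition of growth. Definition used: TGI = concentration required for complete inhibition of growth.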

test system: NCI-H322M lung; test: inhibition of tumour cell growth, NCI panel, 48 h

Row | SMILES | TGI | GI50
1 | Nc1cc(N2CCCC2)nc(=O)n1-c1ccccc1 | > 100 µM | –
2 | O=C1c2ccccc2C(=O)N1CCN(CCN1C(=O)c2ccccc2C1=O)Cn1cccn1 | > 100 µM | –
3 | COC1=CCC=C(C[C@@H]2NCCc3cc(OC)c(OC)cc32)C1 | > 100 µM | –
4 | COc1ccc2c(CN3CCC(C(=O)O)CC3)cc3cc4c(cc3c2c1)OCO4 | 6.8 µM | 2.12 µM
5 | O=C(O)c1ccc(NC(NC(=O)C(C(F)(F)F)C(F)(F)F)(C(F)(F)F)C(F)(F)F)cc1 | > 100 µM | –
6 | COc1ccc2c(c1)[n+](=O)c(C(=O)c1ccco1)c(C(F)(F)F)n2[O-] | 21.5 µM | 4.28 µM
7 | COCCCNC(=O)C1=C(C)NC(C)=C(C(=O)NCCCOC)C1 | > 100 µM | –
8 | CCCCCCCCCCCCCCCCOCC(Cl)COP(=O)(O)OP(=O)(O)OCC1OC(n2cc(C)c(=O)[nH]c2=O)CC1O (stereo not drawn) | > 100 µM | –
9 | Cc1nc(N/N=C/c2ccccc2Cl)[nH]c(=O)c1CCO | > 100 µM | –
10 | [O-][n+]1ccccc1S | 57 µM | –
11 | CN(C)CCN=C1Nc2ccccc2C(=S)N2CSCC12 (stereo not drawn) | > 100 µM | –
12 | CCOC(=O)C1C2CCC(C2)C1(CCl)C(=O)OCC (stereo not drawn) | > 100 µM | –
13 | C=C(C)[C@H]1C=C[C@@H](OC(=O)c2cccnc2)[C@@]23CO[C@@](C)([C@H](OC(=O)c4cccnc4)[C@@]4(OC(C)=O)C[C@H](C)[C@H](OCCC)[C@@H]4[C@H]2OC(C)=O)[C@H]13 | > 15 µM | –
14 | COc1ccc(C(=O)c2cc(OC)c(OC)c(OC)c2)cc1/C=C/C(=O)c1ccc(OC)c(OC)c1 | > 100 µM | 8.89 µM
15 | CC1CCC2(C(=O)O)CCC3(C)C(=CCC4C5(C)CCC(O)C(C)(C)C5CCC43C)C2C1C (stereo not drawn) | 15.9 µM and 30.8 µM | 6.85 µM and 14 µM
16 | CN(C)P(=O)(Oc1ccc(CC(NC(=O)OCc2ccccc2)C(=O)OCc2ccccc2)cc1)N(C)C (stereo not drawn) | 36.6 µM | –
17 | CC(=O)O[C@H]1/C(=C/c2ccncc2)C[C@H]2[C@@H]3CC=C4C[C@@H](N5CCCC5)CC[C@]4(C)[C@H]3CC[C@]12C | 26 µM | –
18 | CCOc1ccc(N/C(Cl)=C(Cl)\C(=C(\Nc2ccc(OCC)cc2)n2nnc3ccccc32)[N+](=O)[O-])cc1 | > 57.8 µM | –
19 | COC(=O)C(Cc1cc(OC)c(OC)c(OC)c1)c1ccc(OC)cc1 (stereo not drawn) | > 100 µM | –
20 | Clc1cccc(Cl)c1C1CSc2ccccc2N=C1c1ccccc1 (stereo not drawn) | 32.1 µM | 14.3 µM
21 | COc1cc(OC)c2nc(C)c3c(c2c1)NCC3 | 29.8 µM | –
22 | CC1Oc2c(c(=O)oc3ccccc23)[C@@]1(C)CC1C[C@H](C)C(=O)O1 (stereo partly drawn) | > 100 µM | –
23 | CCOC(=O)c1c(C)n2c(=O)cc(C)c3c(O)c(O)cc1c32 | 9.49 µM | 2.29 µM
24 | O=C(c1ccccc1)c1ccc(Oc2ccc([N+](=O)[O-])cc2[N+](=O)[O-])cc1 | 25.9 µM | 12 µM
25 | CCOC(=O)c1c(Cl)nc2ccccc2c1N=[N+]=[N-] | 73.9 µM | –

Row | SMILES | TGI | GI50
26 | CCOC(=O)n1cc(C2=C(c3cn(C)c4ccccc34)COC2=O)c2ccccc21 | > 100 µM | 0.938 µM
27 | Cc1ccc(Nc2c(C#N)[n+]([O-])c3cc(Cl)ccc3[n+]2[O-])cc1 | > 100 µM | –
28 | CCN1C(=O)C(C)S/C1=N\NC(=O)CSc1nc2ccccc2c(=O)n1CC (stereo not drawn) | > 100 µM | –
29 | Cc1ccc(C(SCC(N)C(=O)O)(c2ccc(C)cc2)c2ccc(C)cc2)cc1 (stereo not drawn) | 20.5 µM | 0.999 µM
30 | COc1ccc(C2CC(c3cc(C)ccc3O)=NC(N)=N2)cc1 (stereo not drawn) | > 100 µM | –
31 | O=C(CSc1nc2[nH]ncc2c(=O)[nH]1)c1ccc(Cl)cc1 | > 100 µM | –
32 | COc1c(C(=O)c2ccc([N+](=O)[O-])cc2)cc(C(C)(C)C)cc1C(C)(C)C | > 100 µM | –
33 | CC(=O)NC1=C(NCCN(C)C)C(=O)c2ccccc2C1=O | > 50 µM | –
34 | COC(=O)/C=C(\C(=O)OC)c1c2c3c(cc(OC)c(OC)c3c3ccccc13)CCN2C | > 100 µM | –
35 | NS(=O)(=O)c1ccc(NC2=CC(=O)C(=O)c3ccccc32)cc1 | > 100 µM | –
36 | COc1cc(-c2nc3ccccc3s2)ccc1NC(=O)COc1ccc(Cl)cc1 | > 100 µM | 7.56 µM
37 | COc1cccc(/C=N/[N-]C(N)=O)c1[O-].[Ni+2].[OH3+].c1ccc(-c2ccccn2)nc1 | > 100 µM | –
38 | COc1cccc2c1OC(c1ccc(C#N)cc1)C([N+](=O)[O-])=C2 (stereo not drawn) | 16.8 µM | –
39 | Cc1[nH]nc(N)c1C(N)=O | > 100 µM | –
40 | C/C=C/C1=CC(=O)C(O)C1O (stereo not drawn) | 96.1 µM | –
41 | O=C(c1ccccc1)N1C2CCC1C(C(F)(F)F)=C2C(F)(F)F | > 100 µM | –
42 | Cc1ccc(-c2cc(C(F)(F)F)nn2-c2ccc(S(N)(=O)=O)cc2)cc1 | 53.4 µM | –
43 | CO[C@@H]1C=C[C@@]23c4cc5c(cc4C(=O)O[C@H]2CN(C)[C@H]3C1)OCO5 | > 100 µM | –
44 | CCOC(=O)C(C)NC(=O)C(C)NC(=O)C(C)NC(=O)C(C)NC(=O)C(C)NC(=O)OCc1ccccc1 (stereo not drawn) | > 100 µM | –
45 | CNC(=O)N(CCC#N)CCCN(C(=O)NC)c1ccccc1 | > 100 µM | –
46 | Cc1ccc(S(=O)(=O)N2CCSCCN(S(=O)(=O)c3ccc(C)cc3)CCN(S(=O)(=O)c3ccc(C)cc3)CC2)cc1 | > 100 µM | –
47 | COc1ccc(/C(O)=C/c2nc3cccnc3nc2/C=C(\O)c2ccc(OC)cc2)cc1 | > 100 µM | –
48 | Cc1nc2c(=O)n(-c3ccccc3)c3ccccc3c2o1 | > 100 µM | –
49 | CCOC(=O)[C@@]12C[C@](/C=C/OC)(O[Si](C)(C)C)[C@@]13c1cc(OC)c(OC)cc1CCN3C(=O)C2O (stereo partly drawn) | > 100 µM | –
50 | NC(=S)N/N=C1\NC(=O)/C(=C/c2ccc3c(c2)OCO3)S1 | 83 µM | –

Row | SMILES | TGI | GI50
51 | OCC(O)C(O)C(O)c1nn(-c2ccc(Cl)cc2)c2nc3cc(Cl)c(Cl)cc3nc12 (stereo not drawn) | > 100 µM | –
52 | CCOC(=O)c1cnc2n(c1=N)[C@H]1CCCC[C@@H]1N2 | > 100 µM | –
53 | C=C(C)[C@@]1(OC(=O)c2cc([N+](=O)[O-])cc([N+](=O)[O-])c2)C[C@@H]2CCCC[C@@H]21 | > 100 µM | –
54 | CC1=NOC(=O)/C1=C/c1cccc2ccccc12 | > 100 µM | –
55 | O=C(c1ccccc1)c1ccc(-n2c3ccccc3c3ccc4c(c32)C(=O)C=CC4=O)cc1 | 35.9 µM | –
56 | Cc1ccc2ncnc(N(CC(C)C)CC(C)C)c2c1 | 35.1 µM | 19.4 µM
57 | Cc1oc2c(Cl)cc(O)c(Cl)c2c2cccc1-2 | > 100 µM | –
58 | Cc1ccccc1-n1ncc(C(=O)c2ccccc2)c1N | > 25 µM | > 25 µM
59 | CCCCC(Sc1cc(Cl)c(C)cc1S(=O)(=O)Nc1n[nH]c(N)n1)C(=O)OC (stereo not drawn) | > 10 µM | –
60 | O=C(c1ccccc1)[C@H]1Nc2ccc(Cl)cc2C2c3ccccc3CC21 (stereo partly drawn) | > 100 µM | –
61 | CC(C)(C)C(=O)OCOP(=O)(OCOC(=O)C(C)(C)C)C1CC(O)N(O)C1=O (stereo not drawn) | 39.7 µM | 3.83 µM
62 | O=c1[nH]nc(Cc2ccccc2)n1/N=C\c1ccccc1 | > 100 µM | –
63 | COc1ccc2cc(-c3cc4c(oc3=O)-c3ccccc3OC4O)c(=O)oc2c1 (stereo not drawn) | 39.4 µM | 19 µM
64 | Oc1ccc(O)c(-c2cn3ccsc3n2)c1 | 25.2 µM | 10.2 µM
65 | CCCCCCOc1ccc(C(=O)NO)cc1 | 57.4 µM | –
66 | CNC(=O)OCc1c2ccncc2c(C)c2c1[nH]c1ccccc12 | 1.56 µM | –
67 | CC1(C)Cc2c(C#N)c(N)c3c(c2CO1)C(=O)OC3=O | > 100 µM | –
68 | CC(=O)Nc1ccc(-c2nc3ccccc3s2)cc1I | > 100 µM | –
69 | COc1cc(OC)c(/C=C\c2ccnc3ccccc23)c(OC)c1 | 14.9 µM | –
70 | C[C@]12CC[C@H](O)C[C@H]1CC[C@@H]1[C@@H]2CC[C@]2(C)[C@@H](C3=CC(=O)OC3)[C@@H](O)C[C@]12O | 6.79 µM | –
71 | CC1CC[C@@]2(OC1)OC1CC3C4CCC5C[C@@H](OC6OC(CO)C(OC7OC(CO)C(O)C(OC8OC(CO)C(O)C(OC9OC(CO)C(O)C(O)C9O)C8O)C7OC7OC(CO)C(O)C(O)C7O)C(O)C6O)[C@H](O)C[C@]5(C)C4CC[C@]3(C)C1[C@@H]2C (stereo partly drawn) | > 80.5 µM | –
72 | CCOC(=O)CSC(=O)NCCCl | > 100 µM | –
73 | C=CCSC1=N/C(=C\c2cccs2)C(=O)N1CC=C | > 100 µM | –
74 | COc1ccc2[nH]cc([C@@H]3C4CCC(C4)[C@H]3NCc3cccc(CN[C@H]4C5CCC(C5)[C@@H]4c4c[nH]c5ccc(OC)cc45)c3)c2c1 | 2.84 µM and 3.07 µM | –
75 | CC[P+](C)(C)c1ccccc1 | > 100 µM | –

Row | SMILES | TGI | GI50
76 | COC(=O)C1OC(O[C@H]2CC[C@]3(C)[C@H]4CC=C5[C@@H]6CC(C)(C)CC[C@]6(C(=O)OC6OCC(O)C(O)C6OC6OC(C)C(OC7OCC(O)C(OC8OCC(O)C(O)C8O)C7O)C(OC7OCC(O)C(O)C7O)C6O)CC[C@@]5(C)[C@]4(C)CC[C@H]3C2(C)C)C(O)C(OC2OCC(O)C(O)C2O)C1O (stereo partly drawn) | 10.1 µM and 12 µM | –
77 | CS(=O)(=O)Nc1ccc(-c2cc(-c3ccccc3)cc(C(N)=O)c2N)cc1 | > 25 µM | > 25 µM
78 | CCc1c(Cc2[nH]c(Cc3[nH]c(C=O)c(C)c3CC)c(CC)c2CC)[nH]c(C=O)c1C | > 100 µM | –
79 | Clc1cc(Cl)cc(C2ON=C(c3ccccc3)N2C23CC4CC(CC(C4)C2)C3)c1 (stereo not drawn) | > 10 µM | –
80 | Cc1cc(S(=O)(=O)Nc2cc(N)[nH]n2)c(SCc2nc(N)nc(N(C)C)n2)cc1Cl | > 10 µM | –
81 | Clc1ccc2c(c1)N(CCCN1CCCC1)c1ccccc1S2 | 23.6 µM | 10.6 µM
82 | CC(NC(=O)C(N)CC(=O)O)NC(=O)C1CCC1 (stereo not drawn) | > 100 µM | –
83 | COC(=O)C(CC(C)C)NC(=O)NC12CC3CC(CC(F)(C3)C1)C2 (stereo not drawn) | > 100 µM | –
84 | Oc1ccc(N=C2CCC(=C(c3ccccc3)c3ccc(Nc4ccc(O)cc4)cc3)CC2)cc1 | > 100 µM | –
85 | NC(=O)CCC(N=C(N)c1csc(C2OC(CO)C(O)C2O)n1)C(=O)O (stereo not drawn) | > 100 µM | –
86 | Nc1ccn(C2CCC(CO)O2)c(=S)n1 (stereo not drawn) | > 100 µM | –
87 | C=C[C@@H]1C[C@]2(C(=O)OC)Cc3nc4ccccc4nc3CC(C(=O)OC)=C2O1 | > 100 µM | –
88 | O=C(Nc1ccccc1)N(C1=NCC(CI)S1)c1ccc(F)cc1F (stereo not drawn) | > 100 µM | –
89 | NC(=O)c1ccc(NN=O)nc1 | > 100 µM | –
90 | CCOC(=O)CSc1nnc2cc(CN3CCCC3)c(-c3ccc(Cl)cc3)nn12 | 76.1 µM | –
91 | COC(=O)[C@]12CC[C@@H](C)[C@H](C)[C@@H]1C1=CC[C@@H]3[C@@]4(C)C(C=O)=C[C@@](C)(COC(C)=O)C4=CC[C@@]3(C)[C@]1(C)CC2 | 26.8 µM | 7.29 µM
92 | O=C1Nc2c(C(F)(F)F)cccc2[C@@]1(c1ccc(O)cc1)c1ccc(OC(F)(F)F)cc1 | < 0.01 µM | < 0.01 µM
93 | COc1cc(S(=O)(=O)Nc2ccc(-c3csc(N)n3)cc2)ccc1Cl | 35.6 µM | –
94 | O=CNc1ncn[nH]1 | > 100 µM | –
95 | CCN(CC)c1ccc2cc(C(=O)Nc3ccccc3)c(=N)oc2c1 | > 100 µM | –
96 | CCCCCCCCCCCCCC1=NCCN1CCO | 20.8 µM | 5.55 µM
97 | C=CC(=O)NCc1cccc(Nc2ncc(Br)c(NCCCNC(=O)C3CCC3)n2)c1 | 9.47 µM and 14.4 µM | 2.16 µM and 1.78 µM
